PubChem BioAssay AID1477 (National Center for Advancing Translational Sciences (NCATS), 2009)
Hit rate of the full screen: of about 230,000 compounds, fewer than 10 were called active. The inconclusive results got no clear call from the source; some entries with a clear call stand among them for comparison. Calls come from the whole dose curve; as a rule, active = well fitted curve in the direction sought with a large enough effect; inconclusive = small, poorly fitted or top-dose-only effect, or effect the other way, or another doubt; inactive = no such curve, though single readings can be large or run the other way. No potency is given beside an inconclusive call; the fits are too rough.

molecular target: Runt-related transcription factor 1 (Homo sapiens) + Core-binding factor subunit beta (Homo sapiens) (UniProt Q01196+Q13951); test: qHTS Assay for Compounds Blocking the Interaction Between CBF-beta and RUNX1 for the Treatment of Acute Myeloid Leukemia; conditions: AlphaScreen CBFb-His/RUNX1-biotin binding, biochemical; activity, negative = inhibition: at 59.8 µM (top of the series) unless noted; for activity, negative = inhibition: % of control where 0% means no effect
Sequence of UniProt Q01196 (Q01196 whole entry, looked up): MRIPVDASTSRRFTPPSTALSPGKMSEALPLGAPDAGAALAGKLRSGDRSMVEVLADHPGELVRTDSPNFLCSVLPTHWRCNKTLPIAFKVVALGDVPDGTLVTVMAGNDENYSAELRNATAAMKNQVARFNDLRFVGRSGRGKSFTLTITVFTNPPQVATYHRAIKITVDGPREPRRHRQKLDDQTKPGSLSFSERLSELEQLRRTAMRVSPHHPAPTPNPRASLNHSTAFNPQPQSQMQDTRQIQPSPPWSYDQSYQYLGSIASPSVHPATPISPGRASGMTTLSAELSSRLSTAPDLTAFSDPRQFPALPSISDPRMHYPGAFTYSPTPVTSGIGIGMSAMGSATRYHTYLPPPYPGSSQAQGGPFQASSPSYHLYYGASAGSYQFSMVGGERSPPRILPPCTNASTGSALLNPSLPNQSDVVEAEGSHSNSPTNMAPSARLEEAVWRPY
Sequence of UniProt Q01196 (Q13951 whole entry, looked up): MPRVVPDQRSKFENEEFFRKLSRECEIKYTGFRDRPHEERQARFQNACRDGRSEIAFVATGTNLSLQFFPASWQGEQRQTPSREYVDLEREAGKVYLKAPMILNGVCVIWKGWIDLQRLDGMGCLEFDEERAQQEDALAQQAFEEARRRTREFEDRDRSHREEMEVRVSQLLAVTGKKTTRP
Method in brief: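 CBFb-His/RUNX1-biotin, 30 nM each, preincubated 20 min RT; compound 15 min RT; Ni + streptavidin beads 50 ng each, 90 min RT; AlphaScreen read.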

| Molecule | Potency | activity, negative = inhibition |
| --- | --- | --- |
| CC(C)Oc1ccc(Cn2c(=O)sc3ccccc32)cc1 | inconclusive [activator, partial curve] |  |
| O=C(/C=C/c1ccco1)Oc1ccc(C(=S)N2CCOCC2)cc1 |  | inactive: -4.32% |
| S=c1[nH]nc(-c2ccccn2)n1/N=C/c1cccs1 | inconclusive [inhibitor, partial curve] |  |
| CCOC(=O)c1cnc(-c2ccccc2)nc1-c1ccccc1 | inconclusive [activator, single point] |  |
| COC(=O)CC1=C(C(=O)OC)C2(C(=O)Nc3c(C)cccc32)C(C#N)=C(N)O1 (stereo unspecified) |  | inactive: -0.63% |
| Cc1c(NC2=C(Cl)C(=O)N(c3ccccc3Cl)C2=O)c(=O)n(-c2ccccc2)n1C | inconclusive [inhibitor, single point] |  |
| CCn1cc(C2=NC(C)(C)CO2)c2ccccc21 |  | inactive: -2.47% |
| Cc1ccc(/C=N/Nc2nc(N3CCCCC3)nc(N3CCCCC3)n2)o1 |  | inactive: -20% |
| COc1ccc(C2C(C(C)=O)=C(C)N=c3s/c(=C\c4cc(C)n(C)c4C)c(=O)n32)c(OC)c1 (stereo unspecified) | inconclusive [inhibitor, single point] |  |
| Cc1cccc(OCC(=O)O/N=C(\N)Cc2cccs2)c1 | inconclusive [activator, partial curve] |  |
| O=c1c2ccccc2[nH]c(=S)n1-c1cccc(S(=O)(=O)N2CCCC2)c1 |  | inactive: 1.39% |
| CCc1ccc2[nH]c(=O)c(CN(CC3CCCO3)C(=S)NCc3ccco3)cc2c1 (stereo unspecified) | inconclusive [inhibitor, partial curve] |  |
| COc1cc(/C=C2\C(=O)N(c3ccccc3)N=C2C)ccc1Oc1ccc([N+](=O)[O-])cc1[N+](=O)[O-] | inconclusive [inhibitor, single point] |  |
| O=C(Nc1ccccc1)c1cccc(C(F)(F)F)c1 | inconclusive [activator, single point] |  |
| CN=c1scc(C)n1/N=C/c1ccc(O)c(O)c1O | inconclusive [inhibitor, partial curve] |  |
| Cc1ccc(C(C)C)c(OC(=O)/C=C/c2ccccc2)c1 | inconclusive [activator, partial curve] |  |
| COc1ccc(N2CCN(c3ccc(N4C(=O)CC(C)C4=O)cc3[N+](=O)[O-])CC2)cc1 (stereo unspecified) | inconclusive [inhibitor, partial curve] |  |
| COc1ccc(Nc2nc(-c3ccccc3)nc3ccccc23)c(OC)c1 | inconclusive [activator, partial curve] |  |
| COc1ccc(O)c(N)c1 | inconclusive [inhibitor, full curve] |  |
| O=C(CSc1nc(-c2ccc(F)cc2)nc2c1Cc1ccccc1O2)Nc1cccc(C(=O)O)c1 | inconclusive [activator, partial curve] |  |
| CCOC(=O)C(C)Sc1nc(-c2cccs2)ccc1C#N (stereo unspecified) | inconclusive [activator, single point] |  |
| CCS(=O)(=O)Nc1ccc(-c2nc3cccnc3s2)cc1 | inconclusive [inhibitor, single point] |  |
| Cc1nn(-c2ccccc2)c(C)c1NC(=O)c1cccs1 |  | inactive: -4.85% |
| CCCN1C(=O)c2cccc3c(N4CCCCC4)ccc(c23)C1=O | inconclusive [activator, single point] |  |

| Molecule | Potency | activity, negative = inhibition |
| --- | --- | --- |
| C=CC[C@@H]1C=C[C@H](O/N=C(\C)CCN2CCCCc3nc(C)c(C)cc32)[C@H](CO)O1 |  | inactive: 4.09% [at 13.1 µM] |
| N#Cc1c(N)oc(-c2ccccc2)c1-c1ccccc1 |  | inactive: 14.2% |
| Cc1ccc2nc(NC(=O)c3ccccn3)sc2c1 | inconclusive [inhibitor, single point] |  |
| CCCCN(C)C(=S)Nc1ccsc1C(=O)OC | inconclusive [activator, single point] |  |
| O=C(NCCCN1CCCCCC1)c1ccc(N2CCCC2=O)cc1 | inconclusive [activator, single point] |  |
| CCOC(=O)C1=C(C)NC(=S)NC1c1ccc(-c2ccc(Cl)cc2)o1 (stereo unspecified) |  | inactive: -0.0549% |
| O=c1[nH]c(Nc2ccccc2)cc2ccccc12 | inconclusive [inhibitor, partial curve] |  |
| COc1cnc(-c2ccccn2)nc1Sc1ccc(C)cc1 | inconclusive [inhibitor, partial curve] |  |
| CC(=O)c1ccc(N2CCN(C(=S)NCCCN(C)C)CC2)cc1 | inconclusive [inhibitor, single point] |  |
| COCCNC(C(=O)Nc1ccc([N+](=O)[O-])cc1Br)c1ccccc1 (stereo unspecified) | inconclusive [inhibitor, partial curve] |  |
| CNCc1ccccc1Sc1cc(O)ccc1O | inconclusive [inhibitor, partial curve, poor fit] |  |
| CCOC(=O)C(=Cc1ccccc1)C(=O)OCC | inconclusive [inhibitor, single point] |  |
| O=C(Cc1ccccc1)c1c[nH]c(C(=O)NC2CCCC2)c1 | inconclusive [activator, single point] |  |
| Cc1ccc(-c2nc(N=Nc3ccc(O)cc3)n[nH]2)cc1 | inconclusive [inhibitor, single point] |  |
| COCCNCCCCOc1ccc(C)cc1[N+](=O)[O-] | inconclusive [inhibitor, single point] |  |
| Cc1ccc(S(=O)(=O)N2CCOCC2)cc1NC(=O)CNCc1cccnc1 |  | inactive: 1.19% |
| CC(C)Nc1nc(C#N)nc(NC(C)C)n1 | inconclusive [inhibitor, partial curve] |  |
| CC1CC(C)CN(C(=O)CNS(=O)(=O)c2ccc(Br)s2)C1 (stereo unspecified) |  | inactive: 2.91% |
| Cc1cccc(NC(=S)NCc2ccc3c(c2)OCO3)c1 |  | inactive: -3.39% |
| CC12C=CC(=O)C=C1CCC1C2=CCC2(C)C1CC[C@@H]2C(=O)CN1CCN(c2cc(N3CCCC3)nc(N3CCCC3)n2)CC1 (stereo partly specified) | inconclusive [inhibitor, full curve, poor fit] |  |
| O=P(O)(O)OC(CO)CO | inconclusive [activator, partial curve] |  |
| COc1cc([N+](=O)[O-])c(OC)cc1SCc1n[nH]c(=S)n1-c1ccc(F)cc1 |  | inactive: -11.2% |
| CCOC(=O)/C=C1\NC(C)(C)Cc2cc(OC)c(O)cc21 |  | inactive: -2.21% |
| O=C(N/N=C/c1c(O)n(-c2cccc3ccccc23)c(=O)[nH]c1=O)c1ccncc1 | inconclusive [inhibitor, single point] |  |

| Molecule | Potency | activity, negative = inhibition |
| --- | --- | --- |
| C[C@]12C[C@@](C)(C=C1/C=C/c1ccc(C(F)(F)F)cc1)C(=O)C[C@H]2c1ccc(C(F)(F)F)cc1 | inconclusive [activator, full curve, poor fit] |  |
| Clc1ccc(OCc2noc(-c3ccsc3)n2)c(Cl)c1 | inconclusive [activator, single point] |  |
| Cc1ccc(C)c(NC(=S)NCc2ccc3[nH]c4c(c3c2)CCCC4)c1 | inconclusive [inhibitor, single point] |  |
| Nc1ccc(O)c2c(=O)cc(-c3ccccc3Cl)oc12 | inactive |  |
| CC(=O)Nc1ccc(S(=O)(=O)Nc2ccc(N3CCOCC3)cc2)cc1 |  | inactive: 4.71% |
| CC(C)OC(=O)C(O)(c1ccc(Cl)cc1)c1ccc(Cl)cc1 | inconclusive [activator, single point] |  |
| Nn1cnnc1N/N=C/c1cc(Br)cc(Br)c1O | inconclusive [inhibitor, partial curve] |  |
| CCC1=NN2C(=N)/C(=C\c3cccn3-c3ccc(OC)cc3)C(=O)N=C2S1 | inconclusive [activator, single point] |  |
| O=C(c1ccco1)N1CCN(CC(O)Cn2c3ccccc3c3ccccc32)CC1 (stereo unspecified) |  | inactive: -5.12% |
| N#CC(C#N)=NNc1ccc([N+](=O)[O-])cc1 | inconclusive [inhibitor, single point] |  |
| CCOc1ccc(N2C(=O)CC(SCCN)C2=O)cc1 (stereo unspecified) |  | inactive: -1.38% |
| COC(=O)C1=NN(c2ccc(C)cc2)C2C(=O)N(c3ccccc3OC)C(=O)C12 (stereo unspecified) | inconclusive [activator, partial curve] |  |
| CCOC(=O)c1c(-c2ccc(C)o2)csc1NC(=O)CSc1nncs1 | inconclusive [inhibitor, single point] |  |
| CC(C)(C)c1ccc(CN(Cc2ccco2)Cc2nnnn2C2CCCC2)cc1 |  | inactive: -6.23% |
| CSC1=N/C(=C\c2ccc(C)o2)C(=O)S1 |  | inactive: 0.58% |
| H-RILAVERYLKDQQLLGIWGCS-OH | inconclusive [activator, single point] |  |
| O=C1NC(=O)N(Cc2ccc(F)cc2)C(=O)/C1=C\C=C\c1ccco1 | inconclusive [inhibitor, single point] |  |
| Cn1c(-c2ccc3c(c2)OCO3)cnc1NCc1cccc(Cl)c1 |  | inactive: -9.9% |
| Cc1ccc(/C=C2\SC(=S)N(CCCC(=O)Nc3ccc(O)cc3)C2=O)cc1 |  | inactive: 6.6% |
| CSc1ccc(Cl)c(C(=O)OCC(=O)Nc2ccccc2OC(F)F)c1 | inconclusive [activator, full curve] |  |
| COc1ccc(N2CCC(CNC(=S)Nc3cc(C)ccc3C)C2)cc1 (stereo unspecified) | inconclusive [inhibitor, single point] |  |
| COC(=O)c1cc(NS(=O)(=O)c2ccc(N3CCCCCC3)c([N+](=O)[O-])c2)cc(C(=O)OC)c1 | inconclusive [inhibitor, single point] |  |
| CC(=O)Nc1ccc(NC(=O)Cc2ccc(S(=O)(=O)N3CCCCC3)s2)cc1 | inconclusive [inhibitor, single point] |  |
